# Experimental data from PubChem BioAssay (NCATS).
# Where “and” joins values, the source holds several entries; their conditions need not be identical. Equal entries are not always repeated. This list was built around the results that the source calls inconclusive (neither active nor inactive); the mix of calls is not that of the screen. Where the call is inconclusive, the potency comes from a doubtful curve fit. Calls of active or inactive are those of the source. Calls follow the shape of the dose curve; as a rule, active = well fitted curve in the direction sought with a large enough effect; inconclusive = small, poorly fitted or top-dose-only effect, or another doubt; inactive = no such curve, though single readings can be large; an effect the other way counts as inactive or inconclusive.
# Tests used:
# [1] = qHTS for Inhibitors of Plasmodium falciparum (GB4) proliferation (AID 504315); also: nearly all actives have a fitted effect of over 50% in size; settings: P. falciparum GB4 in erythrocytes, SYBR Green DNA, 72 h; activity change, negative = inhibition: at 6.7 µM (top of the series)
# How it was run: (§1)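 Erythrocytes infected with P. falciparum line (0.3% parasitemia, 2.5% hematocrit final) incubated with compounds 72 h at 37 °C, 5% CO2; SYBR Green lysis buffer added, fluorescence read next day. Normalized to 0.29 uM artemisinin and DMSO.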
# [2] = qHTS for Inhibitors of Plasmodium falciparum (7G8) proliferation (AID 504316); also: nearly all actives have a fitted effect of over 65% in size; settings: P. falciparum 7G8 in erythrocytes, SYBR Green DNA, 72 h; activity change, negative = inhibition: at 6.7 µM (top of the series)
# How it was run: as §1
# [3] = qHTS for Inhibitors of Plasmodium falciparum (HB3) proliferation (AID 504318); also: nearly all actives have a fitted effect of over 60% in size; settings: P. falciparum HB3 in erythrocytes, SYBR Green DNA, 72 h; activity change, negative = inhibition: at 7.21 µM (top of the series)
# How it was run: as §1
# Potency is read from the fitted curve at half-maximal effect; tags tell the direction and shape of the fitted curve.
SMILES,Potency [1],Potency [2],Potency [3]
C=CC[C@@H]1C=C(C(=O)OC)N(C(=O)C(F)(F)F)[C@@H](c2ccccc2Br)[C@@H]1C,"inconclusive: 6 nM [activator, full curve, poor fit]",inactive,–
CC1=CC[C@@H](COc2ccccc2)O[C@@]2(C1)C(=O)Nc1cccc(Br)c12,"inconclusive: 3380 nM [inhibitor, partial curve, poor fit]","inconclusive: 1.51 µM [inhibitor, partial curve, poor fit] and inactive","inconclusive: 301 nM [inhibitor, full curve] and inactive"
C=C(C(C)=O)C(O)c1ccco1 (stereo not drawn),"inconclusive: 1900 nM [inhibitor, partial curve, poor fit]","inconclusive: 757 nM [inhibitor, full curve, poor fit]","inconclusive: 2.13 µM [inhibitor, single point]"
C#CCCOC(=O)N1C2=NC(C(=O)OC)=C(C(=O)OC)[C@@H]3N(CC#CC)c4ccccc4[C@]23C[C@H]1C(=O)OC,"inconclusive: 1510 nM [inhibitor, partial curve, poor fit]","inconclusive: 2130 nM [inhibitor, single point]",–
CC(=O)[C@@H]1[C@@H](C)N(Cc2ccccc2)C(=O)N[C@H]1c1ccccc1,"inconclusive: 2130 nM [inhibitor, single point]","inactive and inconclusive: 1.69 µM [inhibitor, single point]","inconclusive: 4.15 µM [inhibitor, single point] and inconclusive: 1.9 µM [inhibitor, single point]"
COC(=O)CC1c2ccccc2C(Cc2ccc(OC)cc2)=C(C)N1C(=O)OC (stereo not drawn),inactive,"inactive and inconclusive: 4.78 µM [inhibitor, partial curve, poor fit]",–
C[C@H](ON=C1[C@H]2CCn3c(=O)n(-c4ccccc4)c(=O)n3[C@@H]2[C@H](O)[C@@H]2O[C@H]12)c1cn([C@H](CO)Cc2ccccc2)nn1,inactive,inactive,inactive
COc1ccc(NC(=O)N2CCc3nc(-c4ccccc4)c4c(c3C2)CO[C@@H](C)C4)cc1,"inactive and inconclusive: 120 nM [inhibitor, partial curve, poor fit]",inactive,–
CC(=O)C1=C(C)N(Cc2ccccc2)C(=O)N[C@H]1c1ccco1,inactive,inactive,"inconclusive: 0.849 µM [inhibitor, partial curve, poor fit]"
